Results as given in US20220242974A1 (QURE BIOTECHNOLOGY SHANGHAI, published 2022).

How the values were obtained:
mPDL1-Biotin = molecular target: T1, mPDL1-Biotin (mouse, UniProt Q9EP73 partial chain, limits assumed, biotinylated); assay: ELISA: mPDL1-Biotin 1 ug/ml captured on a streptavidin plate, test antibody titrated, HRP-anti-hFc, OD450
T1 construct: also called biotinylated mouse PD-L1 protein; Mouse PDL1

[1] = molecular target: T2, QPP10.1: PD-L1 Protein, Cynomolgus, Recombinant (His Tag) (cynomolgus, UniProt G7PSE7 19-238); assay: SPR, Biacore T200, 1:1 binding, antibody captured
T2 construct: also called cynoPD-L1; SinoBiologic 90251-C08H

[2] = molecular target: T3, QPP09.1: PD-L1 Protein, Human, Recombinant (His Tag) (human, UniProt Q9NZQ7 partial chain); assay: SPR, Biacore T200, 1:1 binding, antibody captured
T3 construct: also called human PD-L1; SinoBiologic 10084-H08H

biotin-PDL1-FC [3] = molecular target: T4, biotin-PDL1-FC (human, UniProt Q9NZQ7 partial chain, limits assumed, biotinylated); assay: ELISA, antibody coated, biotin-PDL1-FC titrated, HRP-streptavidin
T4 construct: also called biotinylated human PDL1 protein

biotin-PDL1-FC [4] = molecular target: T4, biotin-PDL1-FC; assay: blocking ELISA, PD1-FC (QP1138) coated, biotin-PDL1-FC 2 ug/ml, HRP-streptavidin
T4 sequence (Q9NZQ7 19-238 limits assumed): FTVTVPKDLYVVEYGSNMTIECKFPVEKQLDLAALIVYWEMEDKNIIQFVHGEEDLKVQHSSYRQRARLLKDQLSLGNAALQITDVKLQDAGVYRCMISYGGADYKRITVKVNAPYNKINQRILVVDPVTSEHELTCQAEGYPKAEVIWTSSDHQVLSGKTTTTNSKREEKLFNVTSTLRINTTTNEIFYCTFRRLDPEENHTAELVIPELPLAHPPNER

T2 sequence (G7PSE7 entry or part of it limits assumed): as the sequence (Q9NZQ7 19-238 limits assumed) above, with A33T, A34S, S62N, R68Q, Q82R, F173L, T185A, T192I, H215L counted along it
Sequence of mPDL1-Biotin (Q9EP73 19-239 limits assumed): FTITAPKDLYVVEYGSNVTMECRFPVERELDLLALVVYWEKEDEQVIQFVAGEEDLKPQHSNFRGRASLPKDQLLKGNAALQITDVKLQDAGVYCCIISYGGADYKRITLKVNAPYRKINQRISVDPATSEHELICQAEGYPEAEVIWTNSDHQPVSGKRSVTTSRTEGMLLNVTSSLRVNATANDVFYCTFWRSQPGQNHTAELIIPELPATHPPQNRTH

| Kd [1] | koff [1] | kon [1] | Kd [2] | koff [2] | OD at 0.0007 ug/ml biotin-PDL1-FC (biotin-PDL1-FC [3]) | OD at 0.0021 ug/ml biotin-PDL1-FC (biotin-PDL1-FC [3]) | OD at 0.0062 ug/ml biotin-PDL1-FC (biotin-PDL1-FC [3]) | OD at 0.0185 ug/ml biotin-PDL1-FC (biotin-PDL1-FC [3]) | OD at 0.0556 ug/ml biotin-PDL1-FC (biotin-PDL1-FC [3]) | OD at 0.1667 ug/ml biotin-PDL1-FC (biotin-PDL1-FC [3]) | OD at 0.5000 ug/ml biotin-PDL1-FC (biotin-PDL1-FC [3]) | OD at 2.0000 ug/ml biotin-PDL1-FC (biotin-PDL1-FC [3]) | OD at 0.0457 nM antibody (biotin-PDL1-FC [4]) | OD at 0.1372 nM antibody (biotin-PDL1-FC [4]) | OD at 1.2346 nM antibody (biotin-PDL1-FC [4]) | OD at 3.7037 nM antibody (biotin-PDL1-FC [4]) | OD at 11.1111 nM antibody (biotin-PDL1-FC [4]) | OD at 33.3333 nM antibody (biotin-PDL1-FC [4]) | OD at 100.0000 nM antibody (biotin-PDL1-FC [4]) | Binder | other results |
| --- | --- | --- | --- | --- | --- | --- | --- | --- | --- | --- | --- | --- | --- | --- | --- | --- | --- | --- | --- | --- | --- |
| – | – | – | – | – | – | – | – | – | – | – | – | – | – | – | – | – | – | – | – | QP1142-FC (Fc fusion) QVQLVESGGGSVQAGGSLTLSCAVSGNTYSTNIMGWFRQAPGKEREGVAAILAGGRNTYYADSVKGRFTISQDNAKNTVYLQMNSLKPEDTAMYYCAADTRAAFWNIGPLNSDQYNIWGQGTQVTVSS[human IgG1 Fc with changes skipped] | binding result (mPDL1-Biotin): no binding |
| 6.55 nM | 0.0304 s⁻¹ | 4.64e+06 M⁻¹ s⁻¹ | 3.26 nM | 0.0389 s⁻¹ | – | – | – | – | – | – | – | – | – | – | – | – | – | – | – | QP1122-FC (Fc fusion) QVQLVESGGGSVQAGGSLTLSCAVSGNTYSTNVMGWFRQAPGKEREGVAAILAGGRNTYYADSVKGRFTISQDNAKNTVYLQMNSLKPEDTAMYYCAADTRAAFWNIGPLNSDQYNIWGQGTQVTVSS[human IgG1 Fc with changes skipped] | kon [2]: 1.19e+07 M⁻¹ s⁻¹ |
| 7.87 nM | 7.43 s⁻¹ | 9.44e+08 M⁻¹ s⁻¹ | 3.1 nM | 5.69 s⁻¹ | – | – | – | – | – | – | – | – | – | – | – | – | – | – | – | QP1126-FC (Fc fusion) QVQLVESGGGSVQAGGSLTLSCAVSGNTYSTKYMSWFRQAPGKEREGVAAILAGGRNTYYADSVKGRFTISQDNAKNTVYLRMNSLKPEDTAMYYCAADTRAALWYIGPLNSDQYNTWGQGTQVTVSS[human IgG1 Fc with changes skipped] | – |
| – | – | – | – | – | – | – | – | – | – | – | – | – | – | – | – | – | – | – | – | QP1150-FC (Fc fusion, also called OP1150-FC) QVQLVESGGGSVQAGGSLTLSCAVSGNTYSTKYMGWFRQAPGKEREGVAAILAGGRNTHYADSVKGRFAISQDNAKNTVYLQMNSLKPEDTAMYYCAADTRAAFWNIGPLNSDQYNIWGQGTQVTVSS[human IgG1 Fc with changes skipped] | binding result (mPDL1-Biotin): no binding |
| – | – | – | – | – | 0.125 | 0.114 | 0.108 | 0.0792 | 0.0843 | 0.0957 | 0.142 | 0.23 | 1.21 | 1.3 | 1.08 | 1.11 | 1.12 | 1.02 | 0.793 | QP320 (Fc fusion) EVQLLESGGGLVQPGGSLRLSCAASGFTYGTYAMSWVRQAPGKGLEWVSCIDIYGRASYTDPVKGRFTISRDNSKNTLYLQMNSLRAEDTAVYYCAARDFGYCTASWVHEGFSRYWGQGTLVTVSS[human IgG1 Fc with changes skipped] | OD at 0.4115 nM antibody (biotin-PDL1-FC [4]): 1.47 |
| – | – | – | – | – | 0.156 | 0.156 | 0.12 | 0.096 | 0.0756 | 0.0836 | 0.138 | 0.225 | 1.37 | 1.14 | 1.1 | 1.01 | 0.997 | 1.07 | 0.977 | QP321 (Fc fusion) EVQLLESGGGLVQPGGSLRLSCAASGFTYGTYAMSWVRQAPGKGLEWVACIDIYGRASYTDPVKGRFTISRDNSKNTLYLQMNSLKAEDTAVYYCAARDFGYCTASWVHEGFSRYWGQGTLVTVSS[human IgG1 Fc with changes skipped] | – |
| 5.39 nM | 0.00354 s⁻¹ | 657000 M⁻¹ s⁻¹ | 2.37 nM | 0.00311 s⁻¹ | 0.176 | 0.411 | 1.27 | 2.07 | 2.7 | 2.78 | 2.79 | 3 | 1.21 | 1.11 | 0.969 | 0.914 | 0.484 | 0.28 | 0.203 | QP322 (Fc fusion, as QP320; also called 1162-V3; QD322) EVQLLESGGGLVQPGGSLRLSCAASGFTYGTYAMSWFRQAPGKGREGVACIDIYGRASYTDPVKGRFTISQDNSKNTLYLQMNSLKAEDTAVYYCAARDFGYCTASWVHEGFSRYWGQGTLVTVSS[human IgG1 Fc with changes skipped] | OD at 0.4115 nM antibody (biotin-PDL1-FC [4]): 1.27; kon [2]: 1.31e+06 M⁻¹ s⁻¹ |
| – | – | – | – | – | 0.192 | 0.141 | 0.15 | 0.107 | 0.0882 | 0.129 | 0.201 | 0.413 | 1.29 | 1.06 | 0.879 | 0.895 | 0.753 | 0.737 | 0.661 | QP324 (Fc fusion, as QP320; also called 1166-V2; QD324) EVQLLESGGGLVQPGGSLRLSCAASGFTYGTYAMSWVRQAPGKGLEWVACIDIYGRTSYTDPVKGRFTISQDNSKNTLYLQMNSLRAEDTAVYYCAARDFGYCTASWVHEGFSRYWGQGTLVTVSS[human IgG1 Fc with changes skipped] | OD at 0.4115 nM antibody (biotin-PDL1-FC [4]): 0.901 |
| 5.6 nM | 0.00266 s⁻¹ | 475000 M⁻¹ s⁻¹ | 2.63 nM | 0.00255 s⁻¹ | 0.217 | 0.56 | 1.55 | 2.57 | 3.23 | 3.13 | 3.28 | 3.41 | 1.16 | 1.24 | 1.13 | 1.06 | 0.508 | 0.239 | 0.167 | QP1166-FC (Fc fusion) QVQLVESGGDSVQPGGSLRLSCAASGFTYGTYAMSWFRQAPGKEREGVACIDIYGRTSYTDPVKGRFTISQDNAKNTLYLQMNSLKPEDTAMYYCAARDFGYCTASWVHEGFSRYWGQGTQVTVSS[human IgG1 Fc with changes skipped] | OD at 0.4115 nM antibody (biotin-PDL1-FC [4]): 1.06; kon [2]: 968000 M⁻¹ s⁻¹ |
| 19.6 nM | 0.00416 s⁻¹ | 212000 M⁻¹ s⁻¹ | 10.7 nM | 0.004 s⁻¹ | 0.182 | 0.598 | 1.32 | 2.12 | 2.78 | 3.11 | 3.21 | 3.42 | 1.08 | 1.02 | 0.995 | 1.03 | 0.513 | 0.238 | 0.156 | QP325 (Fc fusion, as QP320; also called 1166-V3; QD325) EVQLLESGGGLVQPGGSLRLSCAASGFTYGTYAMSWFRQAPGKGLEGVACIDIYGRTSYTDPVKGRFTISQDNSKNTLYLQMNSLRAEDTAVYYCAARDFGYCTASWVHEGFSRYWGQGTLVTVSS[human IgG1 Fc with changes skipped] | OD at 0.4115 nM antibody (biotin-PDL1-FC [4]): 0.975; kon [2]: 375000 M⁻¹ s⁻¹ |
| 5.6 nM | 0.00401 s⁻¹ | 715000 M⁻¹ s⁻¹ | 2.77 nM | 0.00379 s⁻¹ | – | – | – | – | – | – | – | – | – | – | – | – | – | – | – | QP1162-FC (Fc fusion) QVQLVESGGGSVQSGGSLRLSCAASGFTYGTYAMSWFRQAPGKEREGVACIDIYGRASYTDPVKGRFTISQDNAKNTLYLQMNSLKPEDTAMYYCAARDFGYCTASWVHEGFSRYWGQGTQVTVSS[human IgG1 Fc with changes skipped] | kon [2]: 1.37e+06 M⁻¹ s⁻¹ |
